Some of these densities may be calculated back from excess volumes.
Experiment: xn = mol fraction of the nth substance listed
Conditions: 100 kPa

CO + CCCC[n+]1ccn(C)c1.O=S(=O)([N-]S(=O)(=O)C(F)(F)F)C(F)(F)F
x1 = 1
Conditions	mass density [kg/m3]
298.15 K	786.9
303.15 K	782.2
308.15 K	777.4
313.15 K	772.6
318.15 K	767.8
323.15 K	763

CS(C)=O + CCCC[n+]1ccn(C)c1.O=S(=O)([N-]S(=O)(=O)C(F)(F)F)C(F)(F)F
mass density [kg/m3]
Conditions	x1 = 0.0951	x1 = 0.2074	x1 = 0.2885	x1 = 0.4003	x1 = 0.5026	x1 = 0.5903	x1 = 0.7066	x1 = 0.8039	x1 = 0.9012	x1 = 1
298.15 K	1424.4	1409.1	1397.6	1376.2	1355.7	–	1307.2	1262.2	1195.4	1095.6
303.15 K	1419.6	1404.3	–	1371.3	–	1334.6	1302.3	1257.3	1190.4	1090.6
308.15 K	1414.8	1399.4	1387.9	1366.5	1345.9	–	1297.4	1252.3	1185.5	–
313.15 K	–	–	1383.1	1361.6	1341	–	1292.5	1247.4	1180.5	–
318.15 K	1405.2	1389.8	1378.2	1356.7	1336.1	1320	1287.7	1242.5	1175.6	1075.6
323.15 K	1400.5	1385	1373.4	1351.8	1331.3	1314.8	1282.8	1237.8	–	1070.7

CCCC[n+]1ccn(C)c1.O=S(=O)([N-]S(=O)(=O)C(F)(F)F)C(F)(F)F + CO
mass density [kg/m3]
Conditions	x2 = 0	x2 = 0.0986	x2 = 0.2068	x2 = 0.295	x2 = 0.4004	x2 = 0.4923	x2 = 0.5956	x2 = 0.7056	x2 = 0.7947	x2 = 0.8978
298.15 K	–	–	1409.3	1396.2	1380.6	1366.3	1343.8	–	1238.6	1085.7
303.15 K	–	–	1404.5	1391.4	–	1361.4	1338.8	1298.1	1233.5	1080.7
308.15 K	1426.4	1412.8	1399.7	1386.6	1371	1356.5	1333.9	1293.2	1228.5	1075.7
313.15 K	1421.6	1408	1395	1381.9	1366.2	1351.6	1329	1288.2	1223.4	1070.7
318.15 K	1416.9	–	1390.2	–	1361.5	–	1324.1	–	1218.4	1065.6
323.15 K	1412.1	1398.6	1385.6	1372.5	1356.7	1342	1319.2	–	1213.4	–

CCCC[n+]1ccn(C)c1.O=S(=O)([N-]S(=O)(=O)C(F)(F)F)C(F)(F)F + CS(C)=O
x2 = 0
Conditions	mass density [kg/m3]
298.15 K	1435.9
308.15 K	1426.4
323.15 K	1412.1
